From the supplement of paper PMC6609913
Structures can show the parent of a compound that is named as a salt. ± gives the standard deviation of the averaged measurements. Whole data set: some 1,300 compounds, median “normalised cell viability” near 1, cut for the lowest 2% near 0.14. The list shows a part of the results.

Tested on: V-C8 (BRCA2-deficient hamster cells)
Experiment: normalised cell viability (fraction of plate median); higher = more viable cells (less toxic)
Conditions: 5 µM
Method in brief: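 Cell viability was measured with a resazurin assay, normalised to the plate median (modified robust per cent of sample) and averaged over triplicate wells. Hamster V-C8 cells lacking BRCA2 and V-C8 cells with BRCA2 restored were seeded in 96-well plates. After 24 h, library drugs from 10 mM DMSO stocks were added at a final 5 μM in 100 μl medium and left for 3 days (screen 1) or 6 days (screen 2), with solvent-only wells alongside.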

| SMILES | normalised cell viability (treatment time: 3 days) | normalised cell viability (treatment time: 6 days) |
| --- | --- | --- |
| CCCCNc1ccc(C(=O)OCCN(C)C)cc1 | 1.03 ± 0.025 | 1.1 ± 0.061 |
| CCN(CC)CCOc1ccc(C(=C(Cl)c2ccccc2)c2ccccc2)cc1 [Clomiphene citrate (Z,E)] | 0.142 ± 0.002 | 0.118 ± 0.011 |
| CC(O)(P(=O)(O)O)P(=O)(O)O [Etidronic acid, disodium salt] | 1.03 ± 0.024 | 1.05 ± 0.046 |
| COc1ccccc1N1CCN(CCCCNC(=O)c2ccc3ccccc3c2)CC1 | 0.971 ± 0.042 | 1.02 ± 0.095 |
| CCC1NC(=O)c2cc(S(N)(=O)=O)c(Cl)cc2N1 (stereo not drawn) [Quinethazone] | 0.937 ± 0.096 | 1 ± 0.077 |
| O=C1[C@H](CC[C@H](O)c2ccc(F)cc2)[C@@H](c2ccc(O)cc2)N1c1ccc(F)cc1 [Ezetimibe] | 1.02 ± 0.093 | 1.03 ± 0.022 |
| Cc1cnc(C(=O)NCCc2ccc(S(=O)(=O)NC(=O)NC3CCCCC3)cc2)cn1 [Glipizide] | 1.093 ± 0.0089 | 1.13 ± 0.034 |
| CN1CCN(c2c(F)cc3c(=O)c(C(=O)O)cn4c3c2SCC4)CC1 [Rufloxacin] | 0.987 ± 0.017 | 0.955 ± 0.077 |
| COC(=O)C1=C(C)NC(C)=C(C(=O)OCCN(C)Cc2ccccc2)C1c1cccc([N+](=O)[O-])c1 (stereo not drawn) [Nicardipine hydrochloride] | 0.285 ± 0.024 | 0.366 ± 0.034 |
| COC(=O)C1=C(C)NC(C)=C(C(=O)OCC(C)C)C1c1ccccc1[N+](=O)[O-] (stereo not drawn) [Nisoldipine] | 0.889 ± 0.059 | 0.894 ± 0.019 |
| CN(C)CCOC(c1ccc(Cl)cc1)c1ccccn1 (stereo not drawn) [Carbinoxamine maleate salt] | 0.976 ± 0.014 | 0.997 ± 0.013 |
| O=C1CCc2ccc(OCCCCN3CCN(c4cccc(Cl)c4Cl)CC3)cc2N1 [Aripiprazole] | 0.405 ± 0.12 | 0.242 ± 0.065 |
| NC(=O)NC1NC(=O)NC1=O (stereo not drawn) [Allantoin] | 1.04 ± 0.015 | 1.02 ± 0.023 |
| O=C1C(O)=C([C@H]2CC[C@H](c3ccc(Cl)cc3)CC2)C(=O)c2ccccc21 [Atovaquone] | 0.896 ± 0.025 | 0.9167 ± 0.0055 |
| CC(C)NCC(O)c1ccc(O)c(O)c1 (single isomer, unassigned; (-)) [(-)-Isoproterenol hydrochloride] | 1 ± 0.035 | 0.952 ± 0.015 |
| Cc1ccccc1C(OCCN(C)C)c1ccccc1 (stereo not drawn) [Orphenadrine hydrochloride] | 1.05 ± 0.14 | 0.964 ± 0.14 |
| NS(=O)(=O)c1cc2c(cc1Cl)NC(CC1CCCC1)NS2(=O)=O (stereo not drawn) [Cyclopenthiazide] | 1.03 ± 0.024 | 1.06 ± 0.052 |
| CC(C)(C)NCC(O)c1cc(O)cc(O)c1 (stereo not drawn) [Terbutaline hemisulfate] | 0.156 ± 0.0028 | 0.146 ± 0.026 |
| CC[N+](CC)(CC)CCOc1cccc(OCC[N+](CC)(CC)CC)c1OCC[N+](CC)(CC)CC [Gallamine triethiodide] | 0.986 ± 0.044 | 1.03 ± 0.033 |
| CCOC(=O)[N-]c1c[n+](N2CCOCC2)no1 [Molsidomine] | 1.02 ± 0.097 | 1.07 ± 0.018 |
| C#C[C@]1(O)CC[C@H]2[C@@H]3CCC4=C(CCC(=O)C4)[C@H]3CC[C@@]21C [Norethynodrel] | 0.994 ± 0.039 | 1.05 ± 0.15 |
| CCc1oc2ccccc2c1C(=O)c1cc(Br)c(O)c(Br)c1 [Benzbromarone] | 1.03 ± 0.026 | 1.051 ± 0.0087 |
| CC/C(=C(\c1ccccc1)c1ccc(OCCN(C)C)cc1)c1ccccc1 [Tamoxifen citrate] | 0.837 ± 0.019 | 0.767 ± 0.035 |

| SMILES | normalised cell viability (treatment time: 3 days) | normalised cell viability (treatment time: 6 days) |
| --- | --- | --- |
| CN[C@@H]1[C@H](O[C@H]2[C@H](O[C@H]3[C@H](O)[C@@H](O)[C@H](NC(=N)N)[C@@H](O)[C@@H]3NC(=N)N)O[C@@H](C)[C@]2(O)CO)O[C@@H](CO)[C@H](O)[C@H]1O [Dihydrostreptomycin sulfate] | 0.9449 ± 0.0023 | 0.959 ± 0.056 |
| NCc1ccc(S(N)(=O)=O)cc1 [Mafenide hydrochloride] | 1.03 ± 0.04 | 0.989 ± 0.11 |
| CCN1CCC[C@H]1CNC(=O)c1c(O)c(Cl)cc(Cl)c1OC [Raclopride] | 0.945 ± 0.029 | 0.975 ± 0.16 |
| CCCCC[C@H](O)/C=C/[C@H]1[C@H](O)CC(=O)[C@@H]1CCCCCCC(=O)O [Alprostadil] | 0.979 ± 0.024 | 0.952 ± 0.078 |
| CC(C(=O)O)c1ccc(C(=O)c2cccs2)cc1 (stereo not drawn) [Suprofen] | 1 ± 0.022 | 1.06 ± 0.026 |
| COc1cc2ncnc(Nc3ccc(F)c(Cl)c3)c2cc1OCCCN1CCOCC1 [Gefitinib] | 0.645 ± 0.035 | 0.685 ± 0.01 |
| CCOc1ccc(NC(C)=O)cc1 [Phenacetin] | 1.02 ± 0.017 | 1 ± 0.098 |
| CN1CCC[C@@H]1CCO[C@](C)(c1ccccc1)c1ccc(Cl)cc1 [Clemastine fumarate] | 0.865 ± 0.022 | 0.903 ± 0.042 |
| Nc1nc2[nH]cc(CCc3ccc(C(=O)N[C@@H](CCC(=O)O)C(=O)O)cc3)c2c(=O)[nH]1 [Pemetrexed disodium] | 0.427 ± 0.012 | 0.525 ± 0.048 |
| COc1ccc(C(=O)c2ccccc2O)c(O)c1 [Dioxybenzone] | 1.07 ± 0.078 | 1.06 ± 0.047 |
| CC(C)(C)NC[C@H](O)COc1ccccc1C1CCCC1 [Penbutolol sulfate] | 0.717 ± 0.077 | 0.833 ± 0.068 |
| COc1ccc(CN2CCN(C(c3ccc(F)cc3)c3ccc(F)cc3)CC2)c(OC)c1OC [Lomerizine hydrochloride] | 0.881 ± 0.042 | 0.799 ± 0.035 |
| Cc1cnc(C(=O)O)c[n+]1[O-] [Acipimox] | 1.11 ± 0.059 | 1.05 ± 0.022 |
| O=C(O)[C@H]1/C(=C/CO)O[C@@H]2CC(=O)N21 [Potassium clavulanate] | 1 ± 0.03 | 0.984 ± 0.039 |
| O=C(OCCOCCO)c1ccccc1Nc1cccc(C(F)(F)F)c1 [Etofenamate] | 1.06 ± 0.028 | 1.03 ± 0.042 |
| OCCN1C[C@H](O)[C@@H](O)[C@H](O)[C@H]1CO [Miglitol] | 1.07 ± 0.04 | 1 ± 0.11 |
| Cn1cnc([N+](=O)[O-])c1Sc1ncnc2[nH]cnc12 [Azathioprine] | 0.822 ± 0.076 | 0.733 ± 0.051 |
| CC(C)C(=O)Nc1ccc([N+](=O)[O-])c(C(F)(F)F)c1 [Flutamide] | 1 ± 0.078 | 0.983 ± 0.031 |
| CC1COc2c(N3CCN(C)CC3)c(F)cc3c(=O)c(C(=O)O)cn1c23 (stereo not drawn) [Ofloxacin] | 1 ± 0.013 | 0.867 ± 0.17 |
| O=C(O)CCCC[C@@H]1SC[C@@H]2NC(=O)N[C@@H]21 [Biotin] | 1.12 ± 0.043 | 0.973 ± 0.023 |
| C[C@@]1(O)CCOC(=O)C1 [Mevalonic-D, L acid lactone] | 1.12 ± 0.05 | 1.05 ± 0.18 |
| COCC(=O)Nc1c(I)c(C(=O)NCC(O)CO)c(I)c(C(=O)N(C)CC(O)CO)c1I (stereo not drawn) [Iopromide] | 0.937 ± 0.075 | 1.07 ± 0.049 |
| COC(=O)C1=C(C)NC(C)=C(C(=O)OC(C)C)C1c1cccc2nonc12 (stereo not drawn) [Isradipine] | 0.986 ± 0.013 | 1.04 ± 0.035 |

| SMILES | normalised cell viability (treatment time: 3 days) | normalised cell viability (treatment time: 6 days) |
| --- | --- | --- |
| C[C@H](CCC(=O)O)[C@H]1CC[C@H]2[C@@H]3CC[C@@H]4C[C@H](O)CC[C@]4(C)[C@H]3CC[C@]12C [Lithocholic acid] | 0.892 ± 0.068 | 0.977 ± 0.083 |
| CC(=O)SCC(Cc1ccccc1)C(=O)NCC(=O)OCc1ccccc1 (stereo not drawn) [Racecadotril] | 1.04 ± 0.018 | 1.07 ± 0.098 |
| Clc1ccc(Nc2nnc(Cc3ccncc3)c3ccccc23)cc1 [Vatalanib] | 0.737 ± 0.012 | 0.823 ± 0.036 |
| CN1CCC(OC(c2ccccc2)c2ccccc2)CC1 [Diphenylpyraline hydrochloride] | 1.02 ± 0.011 | 1.04 ± 0.034 |
| O=C(Oc1cccc2cccnc12)c1ccccc1 [Benzoxiquine] | 0.9 ± 0.062 | 0.654 ± 0.046 |
| CN(C)CCCN1c2ccccc2CCc2ccccc21 [Imipramine hydrochloride] | 0.956 ± 0.016 | 0.968 ± 0.017 |
| NC(CO)C(=O)NNCc1ccc(O)c(O)c1O (stereo not drawn) [Benserazide hydrochloride] | 1.01 ± 0.029 | 0.978 ± 0.07 |
| NCCC[C@H](N)CC(=O)N[C@H]1CNC(=O)[C@H]([C@H]2C[C@H](O)NC(N)=N2)NC(=O)/C(=C/NC(N)=O)NC(=O)[C@H](CO)NC(=O)[C@H](CO)NC1=O [Viomycin sulfate] | 0.873 ± 0.035 | 0.958 ± 0.061 |
| O=c1[nH]cnc2c1ncn2[C@H]1CC[C@@H](CO)O1 [Didanosine] | 0.985 ± 0.041 | 0.955 ± 0.04 |
| CN(C/C=C/C#CC(C)(C)C)Cc1cccc2ccccc12 [Terbinafine] | 0.181 ± 0.0022 | 0.229 ± 0.021 |
| Fc1ccc([C@@H]2CCNC[C@H]2COc2ccc3c(c2)OCO3)cc1 [Paroxetine Hydrochloride] | 0.676 ± 0.022 | 0.707 ± 0.023 |
| Nc1nc(O)c2ncn(CCC(CO)CO)c2n1 [Penciclovir] | 0.956 ± 0.023 | 0.976 ± 0.098 |
| NCC[C@H](O)C(=O)N[C@@H]1C[C@H](N)[C@@H](O[C@H]2O[C@H](CN)[C@@H](O)[C@H](O)[C@H]2O)[C@H](O)[C@H]1O[C@H]1O[C@H](CO)[C@@H](O)[C@H](N)[C@H]1O [Amikacin hydrate] | 0.161 ± 0.0037 | 0.146 ± 0.018 |
| O=C1c2cccc3c2[C@H](CCC3)CN1[C@@H]1CN2CCC1CC2 [Palonosetron hydrochloride] | 1.04 ± 0.037 | 0.919 ± 0.02 |
| CC1(C)S[C@@H]2[C@H](NC(=O)Cc3ccccc3)C(=O)N2[C@H]1C(=O)O [Benzathine benzylpenicillin] | 1.02 ± 0.094 | 1.03 ± 0.056 |
| CC1(C)S[C@@H]2[C@H](NC(=O)Cc3ccccc3)C(=O)N2[C@H]1C(=O)O [Benzylpenicillin sodium] | 0.972 ± 0.015 | 1.03 ± 0.058 |
| CCCCc1nc(Cl)c(CO)n1Cc1ccc(-c2ccccc2-c2nnn[nH]2)cc1 [Losartan] | 1.019 ± 0.0051 | 1.052 ± 0.0052 |
| CCN(CC)CCNC(=O)COc1ccc(OC)cc1 [Mefexamide hydrochloride] | 0.961 ± 0.036 | 0.933 ± 0.075 |
| Clc1ccc(C(Cn2ccnc2)OCc2csc3c(Cl)cccc23)c(Cl)c1 (stereo not drawn) [Sertaconazole nitrate] | 0.737 ± 0.18 | 0.821 ± 0.12 |
| CC(=O)OCC1=C(C(=O)O)N2C(=O)[C@@H](NC(=O)Cc3cccs3)[C@H]2SC1 [Cephalothin sodium salt] | 0.939 ± 0.034 | 0.948 ± 0.058 |
| O=C1CCC(N2C(=O)c3ccccc3C2=O)C(=O)N1 (stereo not drawn) [Thalidomide] | 1.03 ± 0.07 | 0.957 ± 0.062 |
| O=C1NCCN1CCN1CCC(c2cn(-c3ccc(F)cc3)c3ccc(Cl)cc23)CC1 [Sertindole] | 0.385 ± 0.019 | 0.591 ± 0.069 |
| CNCCCN1c2ccccc2CCc2ccccc21 [Desipramine hydrochloride] | 0.907 ± 0.05 | 0.865 ± 0.053 |
